From patent US4935362A, “BMY-28121, a new antitumor antibiotic” (Bristol-Myers Company, priority 1987, dated 1990)

## COc1cccc2c1N[C@H](O)[C@@H]1CC(/C=C/C(=O)N(C)C)=CN1C2=O [BMY-28121 A]
In ethyl acetate and ethyl ether
  solubility: slightly soluble
In methanol, ethanol, chloroform, pyridine, and dimethylformamide
  solubility: readily soluble
In n-hexane and water
  solubility: practically insoluble

Read-outs that look alike come from different tables or passages of the source.
